The campaign covered roughly 52,000 compounds. About 4,300 (8.3%) were called active. Cut-off read from the data, not from the text of the source: active = survival mostly below about 52% (no sharp cut-off); inactive = mostly above about 56%. The list shows a part of the results.

The assay has as its system DeltatarO mutant. As to the kind of experiment: growth inhibition of S. aureus wild type versus tarO mutant, primary screen, teichoic acid synthesis inhibitors, RN4220, OD600 (AID 463173). The note with it: OD600, 18 h, stronger effect = lower value, screened at 18.75 µg/mL (by protocol).
Turning to `CCOc1ccc(OCC(=O)NCCS(=O)(=O)N2CCN(c3ccc(OC)cc3)CC2)cc1`, the survival was inactive: 75%.

As to `COC(=O)c1ccc(NC(=O)c2nn(C)c3c2COc2ccccc2-3)cc1`, the survival is inactive: 79%. `Cc1ccc(NC(=O)Cn2c(=O)n(CCc3ccccc3)c(=O)c3sc4ccccc4c32)cc1C`: the survival is inactive: 88%. The value for `COc1ccccc1CNS(=O)(=O)c1cc(-c2cc(C)no2)ccc1C` was inactive: 102%.

Turning to `O=C(NCc1cccc(Cl)c1)c1oc(=O)c2ccccc2c1-c1ccccc1`, the survival is inactive: 93%. The value for `Cc1nn(CCCC(=O)NCCc2ccc(Cl)cc2)c(=O)c2nn(-c3ccccc3)c(C)c12` was inactive: 83%. Consider `COc1ccc(N(C(=O)c2cc(OC)c(OC)c(OC)c2)S(=O)(=O)c2ccc(C)cc2)cc1`, for which the survival was inactive: 142%. With `Cn1cc(-c2cc3n(n2)CCC(=O)N3CC(=O)NCc2ccccc2)c2ccccc21` the figure was inactive: 101%; with `Cc1cccc(Cn2c(SCc3ccc(C(=O)NCc4cccs4)cc3)nc3ccncc32)c1`, inactive: 73%. The value for `Cc1ccccc1C(=O)Nc1ccc2nc(SCC(=O)N(C)c3ccccc3)sc2c1` was inactive: 59%. The value for `CN(C)C1(CNC(=O)COc2cccc(Cl)c2)CCCCC1` was inactive: 95%. Turning to `CCC(=O)N1c2ccccc2CC1C(=O)NCCN1CCN(c2ccccc2F)CC1` (stereo unspecified), the survival is inactive: 78%. The value for `Cc1ccc(NC(=O)CSc2nc(=O)n(CCN3CCOCC3)c3c2CCC3)cc1Cl` was inactive: 69%; that for `CC(C)(C)OC(=O)N1CCC(c2c(C(=O)NCc3ccccn3)cnn2-c2ccccc2Cl)CC1` was active: -4%. For `Cc1ccc(C)c(N2CCN(S(=O)(=O)c3ccc(C4CCCCC4)cc3)CC2)c1`, the survival was inactive: 58%. With `CCCc1noc(-c2ccc(NCc3ccccc3OC)c([N+](=O)[O-])c2)n1` the figure was inactive: 58%.

As for `CCOc1ccccc1NC(=O)CSc1nc(-c2cccs2)cc(C(F)(F)F)n1`, the survival is inactive: 69%.

`COc1ccc(Cl)cc1NC(=O)c1c(NCc2cccs2)sc2c1CCC(C)C2` (stereo unspecified): the survival was inactive: 80%.

Turning to `CCC(=O)Nc1cccc(-c2nc3ccccc3[nH]2)c1C`, the survival was inactive: 94%. For `Cc1cc(-c2ccc(C)c(S(=O)(=O)NCCc3ccccc3)c2)on1`, the survival is inactive: 80%.

Turning to `COc1cccc(CNC(=O)C2CCN(c3ncnc4c3nc3n4CCCCC3)CC2)c1`, the survival was inactive: 86%. Regarding `O=C(Nc1cc(-c2nc3ccccc3o2)ccc1Cl)c1cc([N+](=O)[O-])ccc1N1CCOCC1`, the survival was inactive: 57%. The value for `CCOC(=O)C1=C(C)NC(=S)NC1c1ccc(OCC(=O)N2CCCCC2)c(OC)c1` (stereo unspecified) was inactive: 74%; that for `Cc1ccc(-n2c(=O)c3cccnc3n2CC(=O)Nc2ccccc2C(F)(F)F)cc1C` was inactive: 72%; that for `Cc1ccc(C(=O)c2cc(C)sc2NC(=O)CN2CCN(C(=O)c3ccco3)CC2)cc1` was inactive: 101%.

On to `Cc1ccnc(NC(c2cc(C)ccc2O)c2ccc3cccnc3c2O)c1` (stereo unspecified), for which the survival was active: 4%. With `Cc1ccc(CNC(=O)C2CCN(S(=O)(=O)c3c(C)noc3/C=C/c3ccccc3F)CC2)o1` the figure was inactive: 90%; with `Cc1ccc(C)c(NC(=O)C(NS(=O)(=O)c2ccc3c(c2)CCC(=O)N3)c2ccccc2)c1` (stereo unspecified), inactive: 113%; with `CC[C@H](C)NC(=O)CCCc1nnc2n(CCC(C)C)c(=O)c3sccc3n12`, inactive: 86%. With `COc1ccccc1OC(C)C(=O)N1CCN(CCc2ccccn2)CC1` (stereo unspecified) the figure was inactive: 63%; with `CCC(C)n1c(=N)c(C(=O)NC2CCCCC2)cc2c(=O)n3cc(C)ccc3nc21` (stereo unspecified), inactive: 126%. With `CCOC(=O)C1CCCN(C(=O)Cn2nc(C)n3c(cc4c(OC)cccc43)c2=O)C1` (stereo unspecified), the survival is inactive: 82%. `O=S(=O)(NCc1ccccc1Cl)c1cccc(S(=O)(=O)N2CCOCC2)c1`: the survival was inactive: 71%.

Turning to `O=c1cc(N2CCN(c3ccc(F)cc3)CC2)[nH]c(=O)n1-c1cccc(Br)c1`, the survival is inactive: 63%. For the molecule `CC(C)c1ccc(Cc2cnc(NC(=O)c3ccc4c(c3)CC(c3ccccc3)OC4=O)s2)cc1` (stereo unspecified), the survival is inactive: 60%. As for `Cc1cccc(C(=O)NCc2cn3cccc(C)c3n2)c1`, the survival was inactive: 106%. For `CCC/C(O)=C1\C(=O)CC(C)(C)CC1=Nc1ccncc1`, the survival was inactive: 117%. As to `Fc1ccc(-c2noc3ncnc(NCc4cccc(Cl)c4)c23)cc1`, the survival is inactive: 61%.

In the case of `Cc1cccc(Cc2c(C)nc3nc(SCC(=O)NC4CCCCC4)nn3c2C)c1`, the survival was active: 40%. The value for `CCOC(=O)c1nnc2c(-c3ccc(F)cc3)c(C)nn2c1N` was inactive: 95%; that for `COc1ccc(/C=C\c2onc(C)c2S(=O)(=O)N2CCC(C(=O)Nc3ccc(C)c(F)c3)CC2)cc1` was inactive: 66%.

As to `COc1ccccc1CNC(=O)c1cnn(-c2ccc(F)cc2F)c1C1CCN(C(=O)OC(C)(C)C)CC1`, the survival is inactive: 84%. As for `Cc1ccc(N2CC(NC(=O)Cc3ccc(F)cc3)CC2=O)cc1C` (stereo unspecified), the survival was inactive: 70%. `COc1ccc(-c2noc(CCC(=O)Nc3ccccc3Cl)n2)cc1OC`: the survival was inactive: 97%.

`COCCN1CN=C(NS(=O)(=O)c2ccc(C)cc2)NC1`: the survival was inactive: 82%. As to `Cc1nc(N(CCO)C2CCCCC2)c2nnn(Cc3ccccc3)c2n1`, the survival is inactive: 103%. For `CCN(CC)c1ccc(C2C(C(N)=O)=C(C)Nc3nc(SCc4ccccc4)nn32)cc1` (stereo unspecified), the survival is inactive: 76%. With `COc1cc(C)ccc1OCCSc1nnc(-c2cccs2)o1` the figure was active: 40%; with `FC(F)(F)c1cccc(N2CCN(Cc3nnc(-c4ccccc4)o3)CC2)c1`, inactive: 48%. `CCOc1ccccc1CNC(=O)c1ccc(Cn2c(=O)c3cccn3c3cccnc32)cc1`: the survival is active: 44%. With `CC(C)c1ccc(-c2noc(SCC(=O)N3CCCCC3)n2)cc1` the figure was inactive: 72%.

As to `CCCN(CCC)CCCNC(=O)c1nn(C)c2c1CS(=O)(=O)c1ccccc1-2`, the survival was inactive: 106%. For the molecule `CC(=O)Nc1nonc1-c1nnc(SCc2cccc(Br)c2)n1C`, the survival was inactive: 105%. The value for `O=C(Nc1ccc(N2CCN(C(=O)c3ccco3)CC2)cc1)c1ccccc1` was inactive: 93%; that for `COc1ccc(/C=C(\C#N)c2nc(-c3cc4ccccc4oc3=O)cs2)cc1OC` was inactive: 65%. The value for `CC1CCN(S(=O)(=O)c2ccc3nc(N4CCN(c5ccccc5F)CC4)ccc3c2)CC1` was inactive: 97%.

The record behind these values is PubChem BioAssay AID463173 (ICCB-Longwood Screening Facility, Harvard Medical School, 2010).
